# According to the supplement of paper PMC8728848:
# The other results are listed elsewhere or left out.
# How the values were obtained:
# Assay in all cases: glycan array binding signal (z-score within array); higher = stronger binding
# Conditions in all cases: glycan notation: IUPAC condensed, linker removed
# Gal3S6S(b1-4)GlcNAc = target: Gal3S6S(b1-4)GlcNAc
# Method in brief: (§1)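 Glycan array binding is given as a within-array Z-score, which can be read as non-binding when negative. The arrays, 3228 of them, came from the Consortium for Functional Glycomics database and were retained only where the protein sequence was available. Z-scores were averaged across arrays of the same protein sequence at different concentrations or buffers and across linkers.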
# Gal3S6S(b1-4)GlcNAc6S = target: Gal3S6S(b1-4)GlcNAc6S
# Method in brief: as §1
# Gal4S(b1-4)GlcNAc = target: Gal4S(b1-4)GlcNAc
# Method in brief: as §1
# Gal4S6S(b1-4)GlcNAc = target: Gal4S6S(b1-4)GlcNAc
# Method in brief: as §1
# Gal6P(b1-4)GlcNAc = target: Gal6P(b1-4)GlcNAc
# Method in brief: as §1
# Gal6S(b1-3)GlcNAc = target: Gal6S(b1-3)GlcNAc
# Method in brief: as §1
# Gal6S(b1-3)GlcNAc6S = target: Gal6S(b1-3)GlcNAc6S
# Method in brief: as §1
# Gal6S(b1-4)Glc = target: Gal6S(b1-4)Glc
# Method in brief: as §1
# Gal6S(b1-4)Glc6S = target: Gal6S(b1-4)Glc6S
# Method in brief: as §1
# Gal6S(b1-4)GlcNAc = target: Gal6S(b1-4)GlcNAc
# Method in brief: as §1
# Gal6S(b1-4)GlcNAc6S = target: Gal6S(b1-4)GlcNAc6S
# Method in brief: as §1
# GalNAc(a1-3)Gal = target: GalNAc(a1-3)Gal
# Method in brief: as §1
# GalNAc(a1-3)GalNAc = target: GalNAc(a1-3)GalNAc
# Method in brief: as §1
# [1] = target: GalNAc(a1-3)GalNAc(b1-3)Gal(a1-4)Gal(b1-4)Glc
# Method in brief: as §1
# [2] = target: GalNAc(a1-3)GalNAc(b1-3)Gal(a1-4)Gal(b1-4)GlcNAc
# Method in brief: as §1
# GalNAc(b1-3)Gal = target: GalNAc(b1-3)Gal
# Method in brief: as §1
# [3] = target: GalNAc(b1-3)Gal(a1-4)Gal(b1-4)GlcNAc
# Method in brief: as §1
# [4] = target: GalNAc(b1-3)Gal(a1-4)Gal(b1-4)GlcNAc(b1-3)Gal(b1-4)Glc
# Method in brief: as §1
# [5] = target: GalNAc(b1-3)Gal(a1-6)Gal(b1-4)Glc
# Method in brief: as §1
# GalNAc(b1-3)GalNAc = target: GalNAc(b1-3)GalNAc
# Method in brief: as §1
# GalNAc(b1-3)GlcNAc = target: GalNAc(b1-3)GlcNAc
# Method in brief: as §1
# GalNAc(b1-4)Gal(b1-4)Glc = target: GalNAc(b1-4)Gal(b1-4)Glc
# Method in brief: as §1
# GalNAc(b1-4)GlcNAc = target: GalNAc(b1-4)GlcNAc
# Method in brief: as §1
# [6] = target: GalNAc(b1-4)GlcNAc(b1-2)Man
# Method in brief: as §1
# [7] = target: GalNAc(b1-4)GlcNAc(b1-2)Man(a1-3)[GalNAc(b1-4)GlcNAc(b1-2)Man(a1-6)]Man(b1-4)GlcNAc(b1-4)GlcNAc
# Method in brief: as §1
# [8] = target: GalNAc(b1-4)GlcNAc(b1-3)GalNAc(b1-4)GlcNAc
# Method in brief: as §1
# GalNAc(b1-4)GlcNAc6S = target: GalNAc(b1-4)GlcNAc6S
# Method in brief: as §1
# GalNAc(b1-6)GalNAc = target: GalNAc(b1-6)GalNAc
# Method in brief: as §1
# GalNAc3S(b1-4)GlcNAc = target: GalNAc3S(b1-4)GlcNAc
# Method in brief: as §1
# GalNAc3S(b1-4)GlcNAc3S = target: GalNAc3S(b1-4)GlcNAc3S
# Method in brief: as §1
# [9] = target: GalNAc3S(b1-4)[Fuc(a1-3)]GlcNAc
# Method in brief: as §1
# GalNAc4S6S(b1-4)GlcNAc = target: GalNAc4S6S(b1-4)GlcNAc
# Method in brief: as §1
# GalNAc6S(b1-4)GlcNAc = target: GalNAc6S(b1-4)GlcNAc
# Method in brief: as §1
# Glc(a1-4)Glc = target: Glc(a1-4)Glc
# Method in brief: as §1
# [10] = target: Glc(a1-4)Glc(a1-4)Glc(a1-4)Glc
# Method in brief: as §1
# Glc(a1-6)Glc(a1-6)Glc = target: Glc(a1-6)Glc(a1-6)Glc
# Method in brief: as §1
# [11] = target: Glc(a1-6)Glc(a1-6)Glc(a1-6)Glc
# Method in brief: as §1
# Glc(b1-4)Glc = target: Glc(b1-4)Glc
# Method in brief: as §1
binder,measurement,setting,value
PX9937J-pdi-523-26-523 (Parabacteroides distasonis) (protein) EPVSSISDANYWKSPDLFKAFNIGLHGLLRSQSSYNIFVLGEPRSDIYGDQPFGGEATQGVERFSYNTINAEFTGISNFANFYTTLNQINLMIRRTNETDLLGEAEKNYYLGQAYGLRAYIYFHLLRSWGDVIITTEPTLGSELDISHLDKAASPASEVMDLIKKDIDASEKAFGGDYSYKQGKCYWSKPATLMLKGEVYLWSGRQMGGGTGDYTVAKTALQDLQQNGNLKLQEKFTDVFSFNNKENSEMIFALHSGKEDDFMMWRDYNWRNNMVPQREYMAGYCDETGTPFLEIPGYNLQGLMRYQVKKDHYLKSFREGDTRLKGTLKAVYKKHEDGTLEYIAPIQYKFQGTTLEGSNERSWYDDYPIYRYADALLLLAEAKALLGEDPSTEINAVRERAYGSEYFNAHKNEVAYPNDKGSFYNDNPFEAGDENVMEAILKERLREFFFEGKRWYDLRRFGKDYVLKYTTAQESRLLWPINEGALTNNPALKQTPGY,glycan array binding signal (z-score),Gal3S6S(b1-4)GlcNAc,0.142
same,glycan array binding signal (z-score),Gal3S6S(b1-4)GlcNAc6S,0.587
same,glycan array binding signal (z-score),Gal4S(b1-4)GlcNAc,0.407
same,glycan array binding signal (z-score),Gal4S6S(b1-4)GlcNAc,-0.181
same,glycan array binding signal (z-score),Gal6P(b1-4)GlcNAc,-0.292
same,glycan array binding signal (z-score),Gal6S(b1-3)GlcNAc,1.08
same,glycan array binding signal (z-score),Gal6S(b1-3)GlcNAc6S,0.324
same,glycan array binding signal (z-score),Gal6S(b1-4)Glc,-0.258
same,glycan array binding signal (z-score),Gal6S(b1-4)Glc6S,-0.163
same,glycan array binding signal (z-score),Gal6S(b1-4)GlcNAc,0.696
same,glycan array binding signal (z-score),Gal6S(b1-4)GlcNAc6S,0.691
same,glycan array binding signal (z-score),GalNAc(a1-3)Gal,-0.127
same,glycan array binding signal (z-score),GalNAc(a1-3)GalNAc,-0.541
same,glycan array binding signal (z-score),[1],-0.314
same,glycan array binding signal (z-score),[2],-1.03
same,glycan array binding signal (z-score),GalNAc(b1-3)Gal,-0.506
same,glycan array binding signal (z-score),[3],-0.576
same,glycan array binding signal (z-score),[4],-0.494
same,glycan array binding signal (z-score),[5],-0.319
same,glycan array binding signal (z-score),GalNAc(b1-3)GalNAc,-0.55
same,glycan array binding signal (z-score),GalNAc(b1-3)GlcNAc,-0.008
same,glycan array binding signal (z-score),GalNAc(b1-4)Gal(b1-4)Glc,0.163
same,glycan array binding signal (z-score),GalNAc(b1-4)GlcNAc,-0.223
same,glycan array binding signal (z-score),[6],-0.322
same,glycan array binding signal (z-score),[7],0.019
same,glycan array binding signal (z-score),[8],2.48
same,glycan array binding signal (z-score),GalNAc(b1-4)GlcNAc6S,4.57
same,glycan array binding signal (z-score),GalNAc(b1-6)GalNAc,0.147
same,glycan array binding signal (z-score),GalNAc3S(b1-4)GlcNAc,0.755
same,glycan array binding signal (z-score),GalNAc3S(b1-4)GlcNAc3S,-0.112
same,glycan array binding signal (z-score),[9],0.108
same,glycan array binding signal (z-score),GalNAc4S6S(b1-4)GlcNAc,0.279
same,glycan array binding signal (z-score),GalNAc6S(b1-4)GlcNAc,-0.542
same,glycan array binding signal (z-score),Glc(a1-4)Glc,-0.14
same,glycan array binding signal (z-score),[10],1.07
same,glycan array binding signal (z-score),Glc(a1-6)Glc(a1-6)Glc,-0.451
same,glycan array binding signal (z-score),[11],0.183
same,glycan array binding signal (z-score),Glc(b1-4)Glc,-0.296
